Assay results: US20100172845A1, “COMPOSITIONS AND METHODS FOR TREATING MYCOBACTERIAL INFECTIONS” (BOARD OF REGENTS OF THE UNIVERSITY OF TEXAS SYSTEM, priority 2007, published 2010)

Conditions: mouse, in vivo

Row | Compound | tissue inflammatory response and damage to bronchial and lung structures
1 | CCCCCCCCCCCCO[C@@H]1O[C@H](CO)[C@@H](O[C@H]2O[C@H](CO)[C@@H](O)[C@H](O)[C@H]2O)[C@H](O)[C@H]1O [DDM, n-dodecyl-β-D-maltoside] | did not cause any tissue inflammatory response and any visible damage to the bronchial and lung structures
2 | CCCCCCCCO[C@@H]1O[C@H](CO)[C@@H](O)[C@H](O)[C@H]1O [OG, n-octyl-β-D-glucoside] | did not cause any tissue inflammatory response and any visible damage to the bronchial and lung structures
